Reference: PubChem BioAssay AID493208 (National Center for Advancing Translational Sciences (NCATS), 2011)
Out of some 44,000 compounds screened, about 340 (0.77%) were called active. Inconclusive results (about 5%) are left out. Calls come from the whole dose curve; as a rule, active = well fitted inhibition curve with a large enough effect; inconclusive = small, poorly fitted or top-dose-only effect; inactive = flat fitted curve, though single readings scatter. The list shows a part of the results.

Test: Acumen qHTS Assay for Inhibitors of the mTORC1 Signaling Pathway in MEF (Tsc2-/-, p53-/-) Cells: Sytravon;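 note: plate controls were DMSO for no effect and rapamycin for full effect; nearly all actives have a fitted effect of over 50% in size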
Settings: phospho-rpS6 immunofluorescence/PI, 24 h; series mostly up to 38.3 µM; activity change, negative = inhibition: at the top concentration
Outline: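 Tsc2-/-, p53-/- MEFs (empty-vector stable line) in DMEM + 10% FBS were treated with compounds 24 h at 37 degree Celsius, fixed, and immunostained for phospho-rpS6 (Alexa-488) with propidium iodide counterstain. Laser-scanning cytometry gave % positive cells, normalized against 7.5 nM rapamycin and DMSO.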

Activity change, negative = inhibition, inactive:
Cc1ccc(C2CC(=O)N(Cc3ccc(F)cc3)c3c2c(C)nn3-c2nc(C)cc(C)n2)cc1 (stereo not given) -17.5%
Cc1ccccc1CNC(=O)CN1C(=O)CCCc2ccccc21 -5.6%
Cc1ccc2scc(N3CCCCC3C)c(=O)c2c1 (stereo not given) 2.23%
COc1ccc(Cn2c(SCC(=O)N3CCN(c4ccc(F)cc4)CC3)nc3ccccc32)cc1 2.41%
O=C(CN1CCN(Cc2ccc(F)cc2)C1=O)NCc1ccc(F)cc1 -11.8%
Cc1ccc(NC2(c3ccccc3)C(=O)c3ccccc3C2=O)cc1F -16.3%
O=C(COc1ccccc1)N(Cc1cccnc1)c1nc2c(F)cc(F)cc2s1 -7.45%
Cc1sc(C2C(C#N)=C(N)N(c3ccc(Cl)cc3)C3=C2C(=O)CCC3)cc1CN1CCOCC1 (stereo not given) 7.38%
CC1CCN(S(=O)(=O)c2ccc3c(c2)N(CC(=O)NCCCOC(C)C)C(=O)CO3)CC1 -11.6%
CCc1ccccc1NC(=O)CN(c1ccccc1OC)S(=O)(=O)c1ccc(C)cc1 -2.51%
COCCNC(=O)Cn1c(-c2cccs2)cc2cc(Cl)ccc21 -11.5%
COc1ccc(C2C(=O)N(C3CCCCCC3)CC(=O)N2CCc2ccc(Cl)cc2)cc1OC (stereo not given) 12.7%
COCCNC(=O)CN1C(=O)COc2ccc(S(=O)(=O)N3CCCCCC3)cc21 6.57%
CCC(C(=O)NC1CCCCC1)n1c(SCc2ccccc2F)nc2ccncc21 (stereo not given) -2.81%
CCc1ccc(NC(=O)CSc2ccc(-c3sc(-c4ccccc4)nc3C)nn2)cc1 -1.22%
Cc1ccccc1C(=O)Nc1cccc(NC(=O)c2ccc(C(C)(C)C)cc2)c1 8.48%
CCN(Cc1ccccc1)c1nc2c(S(=O)(=O)c3ccccc3)nnn2c2ccc(Cl)cc12 -1.49%
Cc1nn(C(C)C(=O)NCCc2ccccc2)c(=O)c2c1sc1ccccc12 (stereo not given) 0.994%
CCOc1ccc(C2C(=O)N(C3CCCCC3)CC(=O)N2Cc2ccc(F)cc2)cc1OC (stereo not given) 7.91%
Cc1cccc(CNC(=O)c2ccc3c(c2)N(C)CCS3)c1 -2.96%
CCc1ccc(C(c2ccccc2)c2c(C)[nH]c3ccccc23)s1 (stereo not given) -0.243%
Cc1cc(C)c(NC(=O)CSc2nc3ccccc3c3nc(-c4ccccc4)nn23)c(C)c1 -4.14%
COc1ccc(NC(=O)Cn2c(=O)n(CCCC(=O)NCc3ccccc3Cl)c(=O)c3ccccc32)c(OC)c1 -1.74%
Cc1ccccc1CNC(=O)Cn1nc(C)c2nn(-c3ccc(Cl)cc3)c(C)c2c1=O 2.7%
CCOC(=O)c1sc2ccccc2c1S(=O)(=O)Nc1cc(OC)ccc1OC 1.32%
Cc1ccc(C)c(N2CCN(S(=O)(=O)c3ccc4[nH]c5c(c4c3)CCCC5)CC2)c1 -10%
COc1ccc(CNCc2c(C(=O)O)c(C)n(Cc3ccccc3C)c2C)cc1OC 0.717%
COc1ccc(N2CCN(c3ncccc3-c3nc(-c4ccccc4C)no3)CC2)cc1 -1.97%
COc1ccc(CNS(=O)(=O)c2ccc(C(=O)N(C)C)s2)cc1 0%
N#Cc1nc(-c2ccc(COc3ccc(Cl)cc3)o2)oc1N1CCCCC1 1.41%
COc1ccccc1N1CCN(c2nc3c(S(=O)(=O)c4ccccc4)nnn3c3ccc(Cl)cc23)CC1 -2.9%
CCOC(=O)c1scc(-c2ccccc2)c1S(=O)(=O)Nc1ccccc1OC 1.34%
O=C1c2[nH]nc(-c3ccccc3O)c2C(c2cccc(OCc3ccccc3)c2)N1CCCO (stereo not given) -1.21%
Fc1ccc(N2CCN(Cc3nnc(-c4ccccc4Cl)o3)CC2)cc1 6.19%
CCc1cccc(C)c1Nc1c(-c2ccc(F)cc2)nc2sccn12 -0.0981%
COc1ccc(Cn2c(SCc3ccc(C(=O)NC4CCCCC4)cc3)nc3ccncc32)cc1 -1.1%
CCOc1ccc(NC(=O)CSc2ncc(S(=O)(=O)c3ccc(F)c(C)c3)c(=O)[nH]2)cc1 -0.605%
Cc1ccc2c(=O)c(C(=O)c3ccccc3)cn(CC(=O)NCc3ccccc3)c2n1 -9.31%
Cc1ccc(CNc2nc(-c3ccco3)nn2C(=O)c2ccccc2[N+](=O)[O-])cc1 -6.54%
COc1ccc(N2CC(C(=O)NCCS(=O)(=O)N3CCN(c4ccccc4)CC3)CC2=O)cc1 (stereo not given) -4.86%
COc1ccc(S(=O)(=O)N2CCC(Oc3cccc(C(F)(F)F)c3)CC2)cc1OC 3.51%
CC(C)OCCCNC(=O)c1cn(C)c2ccc(S(=O)(=O)N(C)C3CCCCC3)cc2c1=O -10.4%
Cc1c(C(=O)N2CCCC2)oc2c1-c1nn(CC(=O)NCc3ccc(OC(C)C)cc3)cc1CC2 -10.1%
CCc1cccc(NC(=O)c2cnc(N3CCOCC3)c3ccccc23)c1 -16.5%
CN(CC(=O)Nc1ccc(OC(F)(F)F)cc1)S(=O)(=O)c1ccc2c(c1)CCC(=O)N2 0.0545%
Cc1ccc2occ(-c3cc(-c4ccccc4)nc4c3COc3ccccc3-4)c(=O)c2c1 2.61%
CCOC(=O)c1cc(-c2ccccc2)n(CCCC(=O)Nc2ccc(C)c(Cl)c2)c1C -5.99%
Cc1ccc(-n2c(=O)c3c(C)c(C(=O)N(C)C)sc3n(CC(=O)N(C)c3ccccc3)c2=O)cc1C -0.761%
Cc1ccc(C)c(NC(=O)CSc2nc3nccnc3c(=O)n2CCc2c[nH]c3ccccc23)c1 -0.857%
CCc1cccc(C)c1NC(=O)CN1CCN(Cc2ccccc2Cl)S1(=O)=O 0.0322%
CCc1ccc(NC(=O)Cn2c(=O)c3cccn3c3ccccc32)cc1 4.59%
O=C(Nc1ccc(-c2nc3cc(Cl)ccc3o2)cc1)c1cc(Br)ccc1Cl -28.7%
COc1cc(C(=O)NC2(C(F)(F)F)C(=O)NC(C)=C2C#N)cc(OC)c1OC (stereo not given) 1.75%
CCN(CC)S(=O)(=O)c1ccc2c(c1)N(CC(=O)N1CCN(c3cccc(C)c3)C(C)C1)C(=O)CO2 (stereo not given) 0.416%
CCN(C(=O)CSc1nc2ccccc2c2nc(CCn3c(C)nc4ccccc43)nn12)c1cccc(C)c1 -1.09%
COc1ccc(-c2csc3nc(-c4ccc(Cl)cc4)oc(=O)c23)cc1 1.59%
Cc1cccc(NC(=O)CCn2cnnn2)c1 -3.94%
CC(=O)c1ccc(N2CCN(C(=O)Nc3ccc(C)cc3)CC2)cc1 -1.04%
Cc1ccc(Nc2c(-c3ccc(N4CCOCC4)cc3)nc3ccc(C)cn23)cc1 1.12%
Cn1c(=O)oc2cc(S(=O)(=O)NC(CC(=O)O)c3cccc(Br)c3)ccc21 (stereo not given) -7.99%
COc1ccc(NC(=O)CSc2nnc(N)s2)cc1 8.63%
CCC(C)n1c(SCC(=O)Nc2ccccc2C(=O)OC)nc2ccsc2c1=O (stereo not given) -7.05%
O=C(NCc1c(-n2cccc2)sc2c1CCCC2)Nc1cccc(C(F)(F)F)c1 -2.58%
COCCCNC(=O)CCCn1c(SCC(=O)c2ccc(Br)cc2)nc2c(sc3ccccc32)c1=O -8.69%
Cc1ccc(C(=O)NCC(c2ccc(Cl)cc2)N2CCCCC2)cc1 (stereo not given) -0.22%
CCc1ccc(NC(=O)C2CCCN(S(=O)(=O)c3ccc4c(c3)oc(=O)n4C)C2)cc1 (stereo not given) 1.19%
CCOc1ccc(C(=O)N2CC(=O)Nc3ccc(C)cc3C2c2ccc(F)cc2)cc1OCC (stereo not given) 5.68%
COc1cccc(CNC(=O)c2cccc(N3CCCS3(=O)=O)c2)c1 5.84%
Cc1ccc(Cl)c2sc(NC(=O)c3ccc(S(=O)(=O)N4CCCC4)cc3)nc12 4.48%
CC(C)(C)OC(=O)N1CCC(c2c(C(=O)N3CCCCC3)cnn2-c2ccc(F)cc2)CC1 -7.18%
COc1cccc(NC(=O)c2oc3ccc(S(=O)(=O)N(C)C4CCCCC4)cc3c2C)c1 -0.683%
Cc1ccc(C)c(NC(=O)CSc2nc3ccccc3nc2N2CCOCC2)c1 -3.55%
CCSc1ccccc1C(=O)N1CCN(c2nc3ccccc3s2)CC1 -5.21%
CCc1nn(CC(=O)NCCc2ccc(Cl)cc2)c(=O)c2cc3c(OC)cccc3n12 2.68%
COC(=O)c1ccc(NC(=O)c2cnn(-c3ccc(Cl)cc3)c2C2CCN(C(=O)OC(C)(C)C)CC2)cc1 1.41%
Cc1cc(C)c(NC(=O)c2cc(C)nc3c2c(C)nn3-c2cccc(F)c2)c(C)c1 -10.7%
Cc1cc2oc(C(=O)N(Cc3ccc(Cl)cc3)Cc3ccco3)c(C)c2cc1Cl 2.73%
CCc1ccc(-c2nn(-c3ccc(OC)cc3)c3c2cnc2ccc(OC)cc23)cc1 -13.5%
CCN(CC)C(=O)c1c(NC(=O)c2ccccc2F)sc2c1CCC(C(C)(C)C)C2 (stereo not given) -0.633%
O=C(CSc1nccn1Cc1ccc2c(c1)OCO2)Nc1ccccc1F 0.265%
CCCn1c(=O)sc2cc(NC(=O)c3ccccc3Cl)ccc21 -3.81%
CCC1CCCCN1CCCNC(=O)c1cn(C)c2ccc(S(=O)(=O)N(C)C3CCCCC3)cc2c1=O (stereo not given) 2.41%
COc1cccc(N2CCN(C(=O)c3cccn3-c3nnc(N4CCCCC4)s3)CC2)c1 6.99%
COc1cc(/C=C(/C#N)c2nc(-c3cc4ccccc4oc3=O)cs2)ccc1O -3.22%
Cc1c(Cl)cccc1NC(=O)Nc1c[nH]c(=O)[nH]c1=O 8.72%
Cc1cccc(NC(=O)CSc2nc3c([nH]c4ccccc43)c(=O)n2-c2cc(C)cc(C)c2)c1 -14.1%
CC1CCCCN1C(=O)CSc1nc(-c2ccccc2)no1 (stereo not given) 3.71%
COc1cc(OC)cc(C(=O)Nc2nc(-c3nnn(-c4ccc(C)cc4)c3C)ns2)c1 -28%
CCOC(=O)C1=C(CN2CCC(C)CC2)NC(=O)NC1c1ccc(OC(C)C)cc1 (stereo not given) 2.36%
CCOC(=O)c1ccccc1NC(=O)CSc1nc(=O)[nH]c2c1CCCC2 -0.148%
COc1ccc(Br)cc1CNC(=O)Cn1nc(C)n2c(cc3cc(F)ccc32)c1=O -0.466%
CCc1ccc2occ(CC(=O)N(Cc3ccccc3)C3CCS(=O)(=O)C3)c2c1 (stereo not given) -5.12%
Cc1ccc(NC(=O)CN2C(=O)C(c3ccccc3)=NC23CCCCC3)cc1C 0.541%
CCS(=O)(=O)N1CCCc2cc(C(=O)Nc3cc([N+](=O)[O-])ccc3C)ccc21 -2.73%
CCc1ccc(S(=O)(=O)c2nnn3c2nc(N(C)Cc2ccccc2)c2cc(Cl)ccc23)cc1 -5.33%
